Measurements as given in PMC10036635, “FTD-tau S320F mutation stabilizes local structure and allosterically promotes amyloid motif-dependent aggregation” (Nature Communications, 2023).

B1: full-length 2N4R S320I tau (natural protein)
chain: not shown
notes: microtubule-associated protein tau, human, 2N4R isoform; also called FL 2N4R S320I; source: E. coli BL21-Gold (DE3), purified (Ni-NTA, HiTrap SP HP, Superdex 200)
B2: full-length 2N4R S320V tau (natural protein)
chain: not shown
notes: microtubule-associated protein tau, human, 2N4R isoform; also called FL 2N4R S320V; source: E. coli BL21-Gold (DE3), purified (Ni-NTA, HiTrap SP HP, Superdex 200)
B3: full-length 2N4R S320F tau (natural protein)
chain: not shown
notes: microtubule-associated protein tau, human, 2N4R isoform, FTD-tau mutation S320F; also called FL 2N4R S320F tau; source: E. coli BL21-Gold (DE3), purified (Ni-NTA, HiTrap SP HP, Superdex 200)
B4: full-length 2N4R S320I_I328V tau (natural protein)
chain: not shown
notes: microtubule-associated protein tau, human, 2N4R isoform; source: E. coli BL21-Gold (DE3), purified (Ni-NTA, HiTrap SP HP, Superdex 200)

Biological target: the molecule itself
Assay: ThT fluorescence aggregation assay + negative-stain TEM; FL 2N4R tau at 40 µM, 2 mM TCEP, 25 µM ThT, 37 °C with intermittent shaking, 2 weeks; endpoint ThT fluorescence and TEM

Binding result, binds:
B1
B2
B3
B4
